# Test results reported in the supplement of paper PMC12217912.
# The list shows a part of the results. Sequences were assembled here from the parent chain. Values near 0.05 are background.
# B1: TEV protease; numbered along this chain (parent)
# chain: MGESLFKGPRDYNPISSSICHLTNESDGHTTSLYGIGFGPFIITNKHLFRRNNGTLVVQSLHGVFKVKDTTTLQQHLVDGRDMIIIRMPKDFPPFPQKLKFREPQREERICLVTTNFQTKSMSSMVSDTSCTFPSGDGIFWKHWIQTKDGQCGSPLVSTRDGFIVGIHSASNFTNTNNYFTSVPKNFMELLTNQEAQQWVSGWRLNADSVLWGGHKVFMVKPEEPFQPVKEATQL
# Variants of: B1
# Assay: raw area under fraction-flipped curve 0-4 h after induction (AUC4h, not background-subtracted), DNA-recorder readout of cleavage of the substrate (dimensionless); higher = more cleavage of the substrate by the protease variant
# Conditions: temperature: 34 °C; time window: 0-4 h after rhamnose induction
# Procedure: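 In vivo DNA recorder in E. coli TOP10(DE3) ΔrhaA at 34 °C. Each TEVp single-site mutant (parent TEVp 0) is paired with a single-site variant of the 7-mer TEVs (canonical ENLYFQ|S). The substrate sits between flexible linkers in a Bxb1-sfGFP-TEVs-SsrA fusion, so cleavage stabilises Bxb1 and speeds flipping of a recombination array, read by NGS. The value is the raw area under the fraction-flipped curve over 0-4 h after rhamnose induction (AUC4h), with ≥20 reads per time point. It is not background-subtracted; inactive controls average about 0.047.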
# 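Further: Bxb1 expression induced with 0.2% (w/v) L-rhamnose at OD600 near 0.5, cultures sampled hourly, flipped fraction per protease–substrate barcode pair counted by paired-end Illumina sequencing.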
variant,measurement,value
MGESLFKGPRDMNPISSSICHLTNESDGHTTSLYGIGFGPFIITNKHLFRRNNGTLVVQSLHGVFKVKDTTTLQQHLVDGRDMIIIRMPKDFPPFPQKLKFREPQREERICLVTTNFQTKSMSSMVSDTSCTFPSGDGIFWKHWIQTKDGQCGSPLVSTRDGFIVGIHSASNFTNTNNYFTSVPKNFMELLTNQEAQQWVSGWRLNADSVLWGGHKVFMVKPEEPFQPVKEATQL [Y12M],area with substrate ENAYFQS,0.0386
same,area with substrate ENDYFQS,0.0614
same,area with substrate ENEYFQS,0.0769
same,area with substrate ENFYFQS,0.0608
same,area with substrate ENGYFQS,0.0629
same,area with substrate ENHYFQS,0.0483
same,area with substrate ENIYFQS,0.0737
same,area with substrate ENMYFQS,0.0584
same,area with substrate ENNYFQS,0.0391
same,area with substrate ENQYFQS,0.0531
same,area with substrate ENRYFQS,0.0623
same,area with substrate ENTYFQS,0.0588
same,area with substrate ENVYFQS,0.0862
same,area with substrate ENYYFQS,0.055
MGESLFKGPRDNNPISSSICHLTNESDGHTTSLYGIGFGPFIITNKHLFRRNNGTLVVQSLHGVFKVKDTTTLQQHLVDGRDMIIIRMPKDFPPFPQKLKFREPQREERICLVTTNFQTKSMSSMVSDTSCTFPSGDGIFWKHWIQTKDGQCGSPLVSTRDGFIVGIHSASNFTNTNNYFTSVPKNFMELLTNQEAQQWVSGWRLNADSVLWGGHKVFMVKPEEPFQPVKEATQL [Y12N],area with substrate ENAYFQS,0.0585
same,area with substrate ENCYFQS,0.0832
same,area with substrate ENEYFQS,0.0485
same,area with substrate ENFYFQS,0.0713
same,area with substrate ENIYFQS,0.0655
same,area with substrate ENKYFQS,0.064
same,area with substrate ENMYFQS,0.0559
same,area with substrate ENQYFQS,0.0456
same,area with substrate ENRYFQS,0.0454
same,area with substrate ENSYFQS,0.0599
same,area with substrate ENTYFQS,0.0731
same,area with substrate ENVYFQS,0.0722
MGESLFKGPRDYFPISSSICHLTNESDGHTTSLYGIGFGPFIITNKHLFRRNNGTLVVQSLHGVFKVKDTTTLQQHLVDGRDMIIIRMPKDFPPFPQKLKFREPQREERICLVTTNFQTKSMSSMVSDTSCTFPSGDGIFWKHWIQTKDGQCGSPLVSTRDGFIVGIHSASNFTNTNNYFTSVPKNFMELLTNQEAQQWVSGWRLNADSVLWGGHKVFMVKPEEPFQPVKEATQL [N13F],area with substrate ENAYFQS,0.0581
same,area with substrate ENCYFQS,0.0691
same,area with substrate ENDYFQS,0.0675
same,area with substrate ENEYFQS,0.0596
same,area with substrate ENFYFQS,0.056
same,area with substrate ENGYFQS,0.0588
same,area with substrate ENHYFQS,0.0586
same,area with substrate ENKYFQS,0.0624
same,area with substrate ENMYFQS,0.0687
same,area with substrate ENNYFQS,0.0575
same,area with substrate ENPYFQS,0.0536
same,area with substrate ENQYFQS,0.0577
same,area with substrate ENRYFQS,0.0544
same,area with substrate ENSYFQS,0.0567
same,area with substrate ENTYFQS,0.0663
same,area with substrate ENVYFQS,0.0616
same,area with substrate ENWYFQS,0.0391
same,area with substrate ENYYFQS,0.0844
MGESLFKGPRDYHPISSSICHLTNESDGHTTSLYGIGFGPFIITNKHLFRRNNGTLVVQSLHGVFKVKDTTTLQQHLVDGRDMIIIRMPKDFPPFPQKLKFREPQREERICLVTTNFQTKSMSSMVSDTSCTFPSGDGIFWKHWIQTKDGQCGSPLVSTRDGFIVGIHSASNFTNTNNYFTSVPKNFMELLTNQEAQQWVSGWRLNADSVLWGGHKVFMVKPEEPFQPVKEATQL [N13H],area with substrate ENAYFQS,0.0728
same,area with substrate ENCYFQS,0.0768
same,area with substrate ENDYFQS,0.0623
same,area with substrate ENEYFQS,0.0675
same,area with substrate ENFYFQS,0.0643
same,area with substrate ENGYFQS,0.032
same,area with substrate ENKYFQS,0.0607
same,area with substrate ENMYFQS,0.0836
same,area with substrate ENNYFQS,0.0588
same,area with substrate ENPYFQS,0.0583
same,area with substrate ENQYFQS,0.063
same,area with substrate ENTYFQS,0.0656
same,area with substrate ENVYFQS,0.0754
MGESLFKGPRDYMPISSSICHLTNESDGHTTSLYGIGFGPFIITNKHLFRRNNGTLVVQSLHGVFKVKDTTTLQQHLVDGRDMIIIRMPKDFPPFPQKLKFREPQREERICLVTTNFQTKSMSSMVSDTSCTFPSGDGIFWKHWIQTKDGQCGSPLVSTRDGFIVGIHSASNFTNTNNYFTSVPKNFMELLTNQEAQQWVSGWRLNADSVLWGGHKVFMVKPEEPFQPVKEATQL [N13M],area with substrate ENAYFQS,0.0695
same,area with substrate ENCYFQS,0.0855
same,area with substrate ENDYFQS,0.0518
same,area with substrate ENEYFQS,0.063
same,area with substrate ENFYFQS,0.058
same,area with substrate ENGYFQS,0.0527
same,area with substrate ENHYFQS,0.0652
same,area with substrate ENKYFQS,0.0709
same,area with substrate ENMYFQS,0.058
same,area with substrate ENPYFQS,0.063
same,area with substrate ENQYFQS,0.0647
same,area with substrate ENRYFQS,0.061
same,area with substrate ENSYFQS,0.0637
same,area with substrate ENTYFQS,0.0707
same,area with substrate ENVYFQS,0.0743
same,area with substrate ENWYFQS,0.0601
same,area with substrate ENYYFQS,0.058
MGESLFKGPRDYNEISSSICHLTNESDGHTTSLYGIGFGPFIITNKHLFRRNNGTLVVQSLHGVFKVKDTTTLQQHLVDGRDMIIIRMPKDFPPFPQKLKFREPQREERICLVTTNFQTKSMSSMVSDTSCTFPSGDGIFWKHWIQTKDGQCGSPLVSTRDGFIVGIHSASNFTNTNNYFTSVPKNFMELLTNQEAQQWVSGWRLNADSVLWGGHKVFMVKPEEPFQPVKEATQL [P14E],area with substrate ENAYFQS,0.0453
same,area with substrate ENCYFQS,0.0728
same,area with substrate ENDYFQS,0.0607
same,area with substrate ENEYFQS,0.0539
same,area with substrate ENGYFQS,0.0713
same,area with substrate ENHYFQS,0.0712
same,area with substrate ENIYFQS,0.113
same,area with substrate ENMYFQS,0.0767
same,area with substrate ENNYFQS,0.0665
same,area with substrate ENPYFQS,0.0665
same,area with substrate ENQYFQS,0.0521
same,area with substrate ENRYFQS,0.0567
same,area with substrate ENSYFQS,0.0773
same,area with substrate ENTYFQS,0.061
same,area with substrate ENVYFQS,0.0869
same,area with substrate ENWYFQS,0.0536
same,area with substrate ENYYFQS,0.0494
MGESLFKGPRDYNHISSSICHLTNESDGHTTSLYGIGFGPFIITNKHLFRRNNGTLVVQSLHGVFKVKDTTTLQQHLVDGRDMIIIRMPKDFPPFPQKLKFREPQREERICLVTTNFQTKSMSSMVSDTSCTFPSGDGIFWKHWIQTKDGQCGSPLVSTRDGFIVGIHSASNFTNTNNYFTSVPKNFMELLTNQEAQQWVSGWRLNADSVLWGGHKVFMVKPEEPFQPVKEATQL [P14H],area with substrate ENAYFQS,0.0596
same,area with substrate ENCYFQS,0.072
same,area with substrate ENEYFQS,0.0599
same,area with substrate ENGYFQS,0.0492
same,area with substrate ENKYFQS,0.0515
same,area with substrate ENMYFQS,0.112
same,area with substrate ENPYFQS,0.0501
same,area with substrate ENQYFQS,0.0573
same,area with substrate ENSYFQS,0.0616
same,area with substrate ENYYFQS,0.0665
MGESLFKGPRDYNKISSSICHLTNESDGHTTSLYGIGFGPFIITNKHLFRRNNGTLVVQSLHGVFKVKDTTTLQQHLVDGRDMIIIRMPKDFPPFPQKLKFREPQREERICLVTTNFQTKSMSSMVSDTSCTFPSGDGIFWKHWIQTKDGQCGSPLVSTRDGFIVGIHSASNFTNTNNYFTSVPKNFMELLTNQEAQQWVSGWRLNADSVLWGGHKVFMVKPEEPFQPVKEATQL [P14K],area with substrate ENAYFQS,0.0552
same,area with substrate ENDYFQS,0.0659
same,area with substrate ENEYFQS,0.0803
same,area with substrate ENHYFQS,0.0857
same,area with substrate ENIYFQS,0.113
same,area with substrate ENKYFQS,0.0648
same,area with substrate ENMYFQS,0.123
same,area with substrate ENNYFQS,0.0601
same,area with substrate ENPYFQS,0.0502
same,area with substrate ENQYFQS,0.0524
same,area with substrate ENRYFQS,0.0636
same,area with substrate ENSYFQS,0.0558
same,area with substrate ENTYFQS,0.0329
same,area with substrate ENVYFQS,0.0916
same,area with substrate ENYYFQS,0.0669
MGESLFKGPRDYNPPSSSICHLTNESDGHTTSLYGIGFGPFIITNKHLFRRNNGTLVVQSLHGVFKVKDTTTLQQHLVDGRDMIIIRMPKDFPPFPQKLKFREPQREERICLVTTNFQTKSMSSMVSDTSCTFPSGDGIFWKHWIQTKDGQCGSPLVSTRDGFIVGIHSASNFTNTNNYFTSVPKNFMELLTNQEAQQWVSGWRLNADSVLWGGHKVFMVKPEEPFQPVKEATQL [I15P],area with substrate ENAYFQS,0.0577
same,area with substrate ENDYFQS,0.0631
same,area with substrate ENEYFQS,0.0488
same,area with substrate ENFYFQS,0.0563
same,area with substrate ENGYFQS,0.0444
same,area with substrate ENHYFQS,0.0569
same,area with substrate ENKYFQS,0.0749
same,area with substrate ENNYFQS,0.053
same,area with substrate ENPYFQS,0.0544
same,area with substrate ENQYFQS,0.0626
same,area with substrate ENRYFQS,0.0443
same,area with substrate ENSYFQS,0.0584
same,area with substrate ENTYFQS,0.045
same,area with substrate ENWYFQS,0.062
